In paper PMC4336329 (PLoS ONE, 2015):
In all, about 310,000 compounds went through this assay and about 2,200 (0.71%) showed an effect of 50% or more. Effects have a minus sign here. The list shows a part of the results.

Molecular target: human ether-à-go-go-related gene (hERG) potassium channel (human, UniProt Q12809)
Assay: primary screen, population patch clamp on CHO cells stably expressing hERG

Sequence of human ether-à-go-go-related gene (hERG) potassium channel (Q12809 whole entry, looked up): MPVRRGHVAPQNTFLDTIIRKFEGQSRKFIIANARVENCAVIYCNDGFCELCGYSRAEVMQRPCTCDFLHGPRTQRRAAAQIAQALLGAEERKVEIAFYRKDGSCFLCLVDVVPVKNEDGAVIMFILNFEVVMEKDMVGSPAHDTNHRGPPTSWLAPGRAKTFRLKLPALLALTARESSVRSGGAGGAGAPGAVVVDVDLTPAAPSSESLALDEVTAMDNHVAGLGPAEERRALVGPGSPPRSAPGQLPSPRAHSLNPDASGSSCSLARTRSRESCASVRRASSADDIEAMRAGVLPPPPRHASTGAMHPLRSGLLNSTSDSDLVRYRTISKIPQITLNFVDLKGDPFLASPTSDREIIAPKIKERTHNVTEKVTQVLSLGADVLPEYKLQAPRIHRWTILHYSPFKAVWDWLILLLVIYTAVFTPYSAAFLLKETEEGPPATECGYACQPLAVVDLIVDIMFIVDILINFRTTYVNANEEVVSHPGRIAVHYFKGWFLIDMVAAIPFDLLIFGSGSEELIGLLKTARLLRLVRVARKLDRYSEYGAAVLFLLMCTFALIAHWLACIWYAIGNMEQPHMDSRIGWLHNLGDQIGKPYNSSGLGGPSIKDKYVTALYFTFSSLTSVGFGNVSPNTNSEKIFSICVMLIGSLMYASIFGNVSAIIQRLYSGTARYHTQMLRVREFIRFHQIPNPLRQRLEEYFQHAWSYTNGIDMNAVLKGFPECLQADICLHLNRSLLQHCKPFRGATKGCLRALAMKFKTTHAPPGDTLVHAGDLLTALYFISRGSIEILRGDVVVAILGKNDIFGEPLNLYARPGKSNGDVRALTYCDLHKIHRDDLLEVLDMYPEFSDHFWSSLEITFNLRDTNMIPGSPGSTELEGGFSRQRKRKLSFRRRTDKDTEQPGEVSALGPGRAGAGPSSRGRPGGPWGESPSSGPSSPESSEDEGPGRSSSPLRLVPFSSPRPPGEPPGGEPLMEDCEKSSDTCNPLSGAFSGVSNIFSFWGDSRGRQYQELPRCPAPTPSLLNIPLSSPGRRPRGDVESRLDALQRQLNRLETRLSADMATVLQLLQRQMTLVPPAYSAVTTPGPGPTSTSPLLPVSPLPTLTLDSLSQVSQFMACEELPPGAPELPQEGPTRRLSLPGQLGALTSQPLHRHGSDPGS

First: CCOc1ccc(-c2nc(S(=O)(=O)c3ccccc3)c(N3CCOCC3)o2)cc1
Second: O=C(Nc1nc2ccccc2n1CCN1CCOCC1)c1ccc(COc2ccccc2Br)o1
The “hERG current change (%, negative = inhibition) at 1uM” value of the first is higher: 5.85% for the first, -7.69% for the second.

Compared with `Cc1ccc(OCCNC(=O)c2cccc(S(=O)(=O)N3CCN(C)CC3)c2)cc1`, `Cc1ccc2[nH]c3c(=O)n(CC(=O)N4CCN(C)CC4)ncc3c2c1` is higher in “hERG current change (%, negative = inhibition) at 1uM” value: 6.44% for the first, 9.78% for the second.

Compared with `COc1ccc(/C=N/n2c(C)nc3ccccc3c2=O)cc1OC`, `COc1cc2nc(-c3ccccc3C)oc(=O)c2cc1OC` is higher in “hERG current change (%, negative = inhibition) at 1uM” value: 9.07% for the first, 12.4% for the second.

First: C/C(=N/NC(=O)CCc1ccccc1)c1ccco1
Second: C/C=C/c1ccc(OCCOCCNCc2ccccc2)c(OC)c1.O=C(O)C(=O)O
The “hERG current change (%, negative = inhibition) at 1uM” value of the first is higher: 13.8% for the first, 5.38% for the second.

Compared with `CCC(C)(C)n1nnnc1C(c1ccc(OC)c(OC)c1)N1CCN(C(=O)c2ccco2)CC1.Cl` (centres unmarked), `COc1ccc(-n2nc(C(=O)NCC(=O)N3CCCCCC3)c3ccccc3c2=O)cc1OC` is higher in “hERG current change (%, negative = inhibition) at 1uM” value: 0.745% for the first, 2.17% for the second.

First: CO/N=C/c1cccn1-c1nccc(N(C)C)c1C#N
Second: Cc1c(C)c2ccc(OCC(=O)NCCCn3ccnc3)cc2oc1=O
The “hERG current change (%, negative = inhibition) at 1uM” value of the first is higher: 10.2% for the first, 9.16% for the second.

Going from `O=C(Nc1ccc2c(c1)CCC2)C1CCCO1` (centres unmarked) to `CC(=O)OC(C(=O)NC1CCCCC1)c1ccc(C#N)cc1` (centres unmarked), the “hERG current change (%, negative = inhibition) at 1uM” value rises from 2.95% to 5.25%.

Going from `O=C(CN1CCN(c2nc(-c3ccccc3)cs2)CC1)NNC(=O)c1ccc(Br)cc1` to `COc1ccccc1N1CCN(c2nnc(-c3ccc(F)cc3)c3ccccc23)CC1`, the “hERG current change (%, negative = inhibition) at 1uM” value rises from 5.23% to 12.4%.

Going from `NC(N)=N/N=C/c1ccc(OCc2ccc(Cl)cc2)cc1` to `COc1ccc(/C=C/c2ccncc2)cc1`, the “hERG current change (%, negative = inhibition) at 1uM” value rises from -5.54% to 7.47%.

Going from `CC1CCc2c(sc3[nH]c(=S)n(C)c(=O)c23)C1` (centres unmarked) to `Cc1cc(=O)[nH]c(SCC(=O)/C=C2\N(C)c3ccccc3C2(C)C)n1`, the “hERG current change (%, negative = inhibition) at 1uM” value falls from 18.5% to 11%.

Compared with `CCC(=O)NNc1ncnc2c1cnn2C`, `c1ccc(Cn2ncc3c(N4CCCCC4)ncnc32)cc1` is lower in “hERG current change (%, negative = inhibition) at 1uM” value: 5.27% for the first, -5.94% for the second.

Going from `CSCCC(NC(=O)COc1ccccc1)C(=O)N(C)CC(=O)Nc1c(C)cccc1C` (centres unmarked) to `COc1ccc(OCC(=O)N/N=C(\C)CC(=O)Nc2ccc(NC(C)=O)cc2)cc1`, the “hERG current change (%, negative = inhibition) at 1uM” value rises from 14.1% to 15.5%.

First: Cc1ccc(NC(=O)Cn2cccc2)c(Br)c1
Second: Cc1ccc(S(=O)(=O)NNC(=O)C2COc3ccccc3O2)cc1 (centres unmarked)
The “hERG current change (%, negative = inhibition) at 1uM” value of the first is lower: -10.2% for the first, 9.18% for the second.

First: COc1ccc(C2=[N+]([O-])C(C)(C)N(O)C2C)cc1 (centres unmarked)
Second: CCOC(=O)c1ccc(NC(=O)C2(c3ccc(OC)cc3)CCCC2)cc1
The “hERG current change (%, negative = inhibition) at 1uM” value of the first is lower: -5.1% for the first, 7.25% for the second.

Going from `Cn1cc(CNC(=O)C23CC4CC(CC(C4)C2)C3)cn1` to `CCCN1CCC(=NNc2ccc(C(=O)O)cc2)CC1.O=S(=O)(O)O`, the “hERG current change (%, negative = inhibition) at 1uM” value rises from 9.66% to 11.2%.

Compared with `Cn1nc([N+](=O)[O-])nc1Oc1ccccc1C(=O)N1CCOCC1`, `CC(C)(C)c1cc(NC(=O)NN2CCOCC2)nn1-c1c(Cl)cc(Cl)cc1Cl` is higher in “hERG current change (%, negative = inhibition) at 1uM” value: 11.5% for the first, 11.9% for the second.

Going from `Cc1ccc(Cn2nnnc2CN2CCC(n3nnc4cc(C(F)(F)F)ccc43)CC2)cc1` to `FC(F)(F)c1cccc(Cc2noc(CN3CCCCC3c3ccccn3)n2)c1` (centres unmarked), the “hERG current change (%, negative = inhibition) at 1uM” value falls from 11.8% to 6.57%.

Compared with `COC(=O)c1cc(C(=O)OCC(=O)NC(=O)c2ccccc2)cc([N+](=O)[O-])c1`, `O=C(Nc1ccccc1)c1sccc1Oc1ccc([N+](=O)[O-])cc1F` is lower in “hERG current change (%, negative = inhibition) at 1uM” value: 15.9% for the first, 3.54% for the second.

Compared with `Cc1cc(C)cc(N(C(=O)c2cccs2)C2C=CS(=O)(=O)C2)c1` (centres unmarked), `O=C1C(=Cc2cccs2)C(=O)c2ccccc21` is higher in “hERG current change (%, negative = inhibition) at 1uM” value: 8.49% for the first, 12.1% for the second.

First: C(=N\N1CCN(C2c3ccccc3-c3ccccc32)CC1)/c1ccccn1
Second: COC(=O)c1ccc(NC(=O)c2ccccc2N(C)S(=O)(=O)c2ccccc2)cc1
The “hERG current change (%, negative = inhibition) at 1uM” value of the first is lower: 13.8% for the first, 13.9% for the second.

Compared with `COC(=O)c1c(NC(=O)C2CC=CCC2C(=O)O)sc(C(N)=O)c1C` (centres unmarked), `COC(=O)C1=C(c2ccc(S(C)(=O)=O)cc2)C[C@@H]2CC[C@H]1N2C(=O)N1CCC(O)CC1` is higher in “hERG current change (%, negative = inhibition) at 1uM” value: -10.3% for the first, 9.51% for the second.

Compared with `CCNC(=S)N/N=C(\C)c1cccc(OC)c1`, `Cc1csc(NC(C)c2nc3cc(Cl)c(Cl)cc3n2CCCO)n1` (centres unmarked) is higher in “hERG current change (%, negative = inhibition) at 1uM” value: 3.62% for the first, 6.67% for the second.
